The other results are listed elsewhere or left out.
Molecular target: T1, MBP-FoxP1dN (Mus musculus, UniProt P58462 326-579)
T1 sequence: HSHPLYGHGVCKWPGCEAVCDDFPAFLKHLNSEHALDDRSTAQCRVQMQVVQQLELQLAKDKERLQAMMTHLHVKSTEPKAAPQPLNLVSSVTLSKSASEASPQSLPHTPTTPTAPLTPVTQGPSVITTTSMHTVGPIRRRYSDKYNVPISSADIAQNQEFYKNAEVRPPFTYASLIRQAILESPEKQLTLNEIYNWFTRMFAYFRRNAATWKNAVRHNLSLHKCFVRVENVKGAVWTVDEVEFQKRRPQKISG
Test: PD-seq (MBP pull-down with sequencing); 20 mM Tris-HCl pH 7.5, 100 mM NaCl, 1.5 mM MgCl2, 0.4 uM protein, 0.1 uM dsDNA library, 30 min, room temperature, amylose pull-down; high values mean tight binding
Conditions: protein: recombinant; tags: His6-MBP; chain copies: 2; dsDNA, one strand shown
In short: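 Binding is reads-per-million enrichment of pull-down over input, with replicates pooled. It comes from 30 min room-temperature incubation in Tris pH 7.5 buffer with NaCl and MgCl2 of 0.4 µM His6-MBP-tagged, N-terminally truncated mouse FoxP3 or FoxP1 fragment from E. coli with 0.1 µM Klenow-filled degenerate double-stranded DNA library, followed by amylose resin capture, three washes and Illumina sequencing of the released DNA.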

Sequence | binding signal
GATGATTGTTCTCCCAGCTGATGAATTGGTATCCTCGAGTAAACAAATTTTCCTAATCTTTCTGTTCAAGCGCCATCTAC | 1.04 RPM ratio (pull-down/input)
GATGATTGTTCTCCCAGCTGATGAATTCACTCGCTCGAGTAAACAAATTTTCCTAATCTTTCTGTTCAAGCGCCATCTAC | 0.819 RPM ratio (pull-down/input)
GATGATTGTTCTCCCAGCTGATGAATTTCTAGCGTCGAGTAAACAAATTTTCCTAATCTTTCTGTTCAAGCGCCATCTAC | 0.92 RPM ratio (pull-down/input)
GATGATTGTTCTCCCAGCTGATGAATTTACTAGATCGAGTAAACAAATTTTCCTAATCTTTCTGTTCAAGCGCCATCTAC | 1.28 RPM ratio (pull-down/input)
GATGATTGTTCTCCCAGCTGATGAATTGTGATTCTCGAGTAAACAAATTTTCCTAATCTTTCTGTTCAAGCGCCATCTAC | 1.22 RPM ratio (pull-down/input)
GATGATTGTTCTCCCAGCTGATGAATTTTGGCGGTCGAGTAAACAAATTTTCCTAATCTTTCTGTTCAAGCGCCATCTAC | 0.799 RPM ratio (pull-down/input)
GATGATTGTTCTCCCAGCTGATGAATTGACATTTTCGAGTAAACAAATTTTCCTAATCTTTCTGTTCAAGCGCCATCTAC | 1.4 RPM ratio (pull-down/input)
GATGATTGTTCTCCCAGCTGATGAATTGTTTGTGTCGAGTAAACAAATTTTCCTAATCTTTCTGTTCAAGCGCCATCTAC | 2.77 RPM ratio (pull-down/input)
GATGATTGTTCTCCCAGCTGATGAATTGTTTGGCTCGAGTAAACAAATTTTCCTAATCTTTCTGTTCAAGCGCCATCTAC | 1.59 RPM ratio (pull-down/input)
GATGATTGTTCTCCCAGCTGATGAATTTAGTGTCTCGAGTAAACAAATTTTCCTAATCTTTCTGTTCAAGCGCCATCTAC | 1.04 RPM ratio (pull-down/input)
GATGATTGTTCTCCCAGCTGATGAATTCTCATCATCGAGTAAACAAATTTTCCTAATCTTTCTGTTCAAGCGCCATCTAC | 0.966 RPM ratio (pull-down/input)
GATGATTGTTCTCCCAGCTGATGAATTGAGGTTCTCGAGTAAACAAATTTTCCTAATCTTTCTGTTCAAGCGCCATCTAC | 0.826 RPM ratio (pull-down/input)
GATGATTGTTCTCCCAGCTGATGAATTAGTTTGGTCGAGTAAACAAATTTTCCTAATCTTTCTGTTCAAGCGCCATCTAC | 0.938 RPM ratio (pull-down/input)
GATGATTGTTCTCCCAGCTGATGAATTTGCTAGTTCGAGTAAACAAATTTTCCTAATCTTTCTGTTCAAGCGCCATCTAC | 1.05 RPM ratio (pull-down/input)
GATGATTGTTCTCCCAGCTGATGAATTTCCTCTCTCGAGTAAACAAATTTTCCTAATCTTTCTGTTCAAGCGCCATCTAC | 0.796 RPM ratio (pull-down/input)
GATGATTGTTCTCCCAGCTGATGAATTTTTGCTGTCGAGTAAACAAATTTTCCTAATCTTTCTGTTCAAGCGCCATCTAC | 1.59 RPM ratio (pull-down/input)

Sequence | binding signal
GATGATTGTTCTCCCAGCTGATGAATTTTCACATTCGAGTAAACAAATTTTCCTAATCTTTCTGTTCAAGCGCCATCTAC | 0.987 RPM ratio (pull-down/input)
GATGATTGTTCTCCCAGCTGATGAATTTTCCTCTTCGAGTAAACAAATTTTCCTAATCTTTCTGTTCAAGCGCCATCTAC | 0.86 RPM ratio (pull-down/input)
GATGATTGTTCTCCCAGCTGATGAATTGTATCCCTCGAGTAAACAAATTTTCCTAATCTTTCTGTTCAAGCGCCATCTAC | 1.09 RPM ratio (pull-down/input)
GATGATTGTTCTCCCAGCTGATGAATTAGAGCCGTCGAGTAAACAAATTTTCCTAATCTTTCTGTTCAAGCGCCATCTAC | 0.838 RPM ratio (pull-down/input)
GATGATTGTTCTCCCAGCTGATGAATTCCTCATTTCGAGTAAACAAATTTTCCTAATCTTTCTGTTCAAGCGCCATCTAC | 0.978 RPM ratio (pull-down/input)
GATGATTGTTCTCCCAGCTGATGAATTACCGACATCGAGTAAACAAATTTTCCTAATCTTTCTGTTCAAGCGCCATCTAC | 1.07 RPM ratio (pull-down/input)
GATGATTGTTCTCCCAGCTGATGAATTGAAGCAATCGAGTAAACAAATTTTCCTAATCTTTCTGTTCAAGCGCCATCTAC | 1.07 RPM ratio (pull-down/input)
GATGATTGTTCTCCCAGCTGATGAATTAAAAAAATCGAGTAAACAAATTTTCCTAATCTTTCTGTTCAAGCGCCATCTAC | 1.04 RPM ratio (pull-down/input)
GATGATTGTTCTCCCAGCTGATGAATTCGCCATATCGAGTAAACAAATTTTCCTAATCTTTCTGTTCAAGCGCCATCTAC | 0.887 RPM ratio (pull-down/input)
GATGATTGTTCTCCCAGCTGATGAATTTTAGAGTTCGAGTAAACAAATTTTCCTAATCTTTCTGTTCAAGCGCCATCTAC | 0.848 RPM ratio (pull-down/input)
GATGATTGTTCTCCCAGCTGATGAATTGTTCTTGTCGAGTAAACAAATTTTCCTAATCTTTCTGTTCAAGCGCCATCTAC | 1.19 RPM ratio (pull-down/input)
GATGATTGTTCTCCCAGCTGATGAATTGGGTAGATCGAGTAAACAAATTTTCCTAATCTTTCTGTTCAAGCGCCATCTAC | 0.868 RPM ratio (pull-down/input)
GATGATTGTTCTCCCAGCTGATGAATTCACTTTGTCGAGTAAACAAATTTTCCTAATCTTTCTGTTCAAGCGCCATCTAC | 0.859 RPM ratio (pull-down/input)
GATGATTGTTCTCCCAGCTGATGAATTTTTACACTCGAGTAAACAAATTTTCCTAATCTTTCTGTTCAAGCGCCATCTAC | 0.965 RPM ratio (pull-down/input)
GATGATTGTTCTCCCAGCTGATGAATTCCTCAATTCGAGTAAACAAATTTTCCTAATCTTTCTGTTCAAGCGCCATCTAC | 0.959 RPM ratio (pull-down/input)
GATGATTGTTCTCCCAGCTGATGAATTACTTGAATCGAGTAAACAAATTTTCCTAATCTTTCTGTTCAAGCGCCATCTAC | 1.12 RPM ratio (pull-down/input)

— PMC12820563, “FoxP3 forms a head-to-head dimer in vivo and stabilizes its multimerization on adjacent microsatellites”
